Reference: patent US4719048A, “Crysene compound” (Burroughs Wellcome Co., priority 1984, dated 1988)
Where a name gives a salt, the structure may show the parent alone. The name of at least one read-out is uncertain.

Tested on: P388/0 tumor cells (lymphocytic leukemia)
Assay: Lymphocytic Leukemia P388/0 Test (survival of tumor-bearing mice)
Assay type: in vivo, mouse (CD2-F1)
Details: ip, days 1, 5, 9; at optimal dose (mg/kg): 1B 121; 1C 115; 2 100; 3 100; 6G 65; 18B 88; 19H 110; 6H 60; 7 110; 9 300; 10B 1013; 11C 150; 12G 90; 5F 225; 13D 303; 14 196; 15B 250; 16 1012; 4B 180; active if ≥120%
Excerpt: Methods for evaluating the antitumor activity of these compounds are essentially those used in the Tumor Panel by the Developmental Therapeutics Program, Division of Cancer Treatment, National Cancer Institute, A. Goldin, et al., Methods in Cancer Research, Vol. XVI, p. 165, Academic Press (1979). Some modifications, in dose level and schedule have been made to increase the testing efficiency.
CD2-F1 mice, of the same sex, weighing 20±3 g, are used for this test. Control and test animals are injected intraperitoneally with a suspension of ~10^6 viable P388/0 tumor cells on day 0. In each test, several dose levels which bracket the LD20 of the compound are evaluated; each dose level group contains six animals. The test compounds are prepared either in physiologic saline containing 0.05% Tween 80 or distilled water containing 5% dextrose and are administered intraperitoneally on days 1, 5, and 9 relative to tumor implant. Doses are on a mg/kg basis according to individual animals' body weights. The day of death for each animal is recorded, the median identified for each group and the ratios of median survival time for treated (T)/control (C) groups are calculated. The criterion for activity is T/C×100≥120%.

SMILES	T/C × 100% (Excluding 30 Day Survivors), median survival time treated/control
Cl.OCC(CO)(CO)NCc1cc2c3ccccc3ccc2c2ccccc12 [Example 2, 2-((6-chrysenylmethyl)amino)-2-hydroxymethyl-1,3-propanediol hydrochloride]	+240%
CC(CO)(CO)NCc1cc2c3ccccc3ccc2c2ccccc12.Cl [Example 1B, 2-((6-chrysenylmethyl)amino)-2-methyl-1,3-propanediol hydrochloride]	+280%
CC(C)C(CO)(CO)NCc1cc2c3ccccc3ccc2c2ccccc12 [Example 11C, 2-((6-chrysenylmethyl)amino)-2-isopropyl-1,3-propanediol hydrochloride.H2 O]	+220%
CCC(CO)(CO)NCc1cc2c3ccccc3ccc2c2ccccc12.Cl [Example 3, 2-((6-chrysenylmethyl)amino)-2-ethyl-1,3-propanediol hydrochloride]	+240%
CC(CO)(CO)NCc1cc2c3ccccc3ccc2c2ccccc12 [Example 1C, 2-((6-chrysenylmethyl)amino)-2-methyl-1,3-propanediol methanesulfonate]	+270%
CCc1cc2c3ccccc3c(CNC(C)(CO)CO)cc2c2ccccc12 [Example 15B, 2-(((12-ethyl-6-chrysenyl)methyl)amino)-2-methyl-1,3-propanediol methanesulfonate]	+130%
CC(CO)(CO)NCc1ccc2ccc3c4ccccc4ccc3c2c1 [Example 19H, 2-((3-chrysenylmethyl)amino)-2-methyl-1,3-propanediol methanesulfonate]	+120%
CC(CO)(CCO)NCc1cc2c3ccccc3ccc2c2ccccc12 (stereo not shown) [Example 12G, 2-((6-chrysenylmethyl)amino)-2-methyl-1,4-butanediol hydrochloride.1/3EtOH]	+270%
CC(C)(CO)NCc1cc2c3ccccc3ccc2c2ccccc12.Cl [Example 18B, 2-((6-chrysenylmethyl)amino)-2-methyl-1-propanol hydrochloride]	+240%
OCC(CO)NCc1cc2c3ccccc3ccc2c2ccccc12 [Example 14, 2-((6-chrysenylmethyl)amino)-1,3-propanediol methanesulfonate]	+270%
